Laboratory results taken from the supplement of paper PMC8728848.
The list shows a part of the results.

How the values were obtained:
Assay in all cases: glycan array binding signal (z-score within array); higher = stronger binding
Settings in all cases: glycan notation: IUPAC condensed, linker removed
[1] = molecular target: Glc(a1-4)Glc(a1-4)Glc(a1-4)Glc(a1-4)Glc(a1-4)Glc(a1-4)Glc
Summary of the method: (§1)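 The binding signal is a Z-score computed within each array. Data were drawn from 3228 arrays in the Consortium for Functional Glycomics database, restricted to those with a known protein sequence. Scores were averaged over arrays of the same protein sequence at different concentrations or buffers, and over linkers, and negative values can be taken as non-binding.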

[2] = molecular target: Glc(a1-4)Glc(a1-4)Glc(a1-4)Glc(a1-4)Glc(a1-4)Glc(a1-4)Glc(a1-4)Glc
Summary of the method: as §1

[3] = molecular target: Glc(a1-4)Glc(a1-4)Glc(a1-4)Glc(a1-4)Glc(a1-4)Glc(a1-4)Glc(a1-4)Glc(a1-4)Glc
Summary of the method: as §1

[4] = molecular target: Glc(a1-4)Glc(a1-4)Glc(a1-4)Glc(a1-4)Glc(a1-4)Glc(a1-4)Glc(a1-4)Glc(a1-4)Glc(a1-4)Glc
Summary of the method: as §1

[5] = molecular target: Glc(a1-4)Glc(a1-4)Glc(a1-4)Glc(a1-4)Glc(a1-4)Glc(a1-4)Glc(a1-4)Glc(a1-4)Glc(a1-4)Glc(a1-4)Glc
Summary of the method: as §1

[6] = molecular target: Glc(a1-4)Glc(a1-4)Glc(a1-4)Glc(a1-4)Glc(a1-4)Glc(a1-4)Glc(a1-4)Glc(a1-4)Glc(a1-4)Glc(a1-4)Glc(a1-4)Glc
Summary of the method: as §1

[7] = molecular target: Glc(a1-4)Glc(a1-4)Glc(a1-4)Glc(a1-4)Glc(a1-4)Glc(a1-4)Glc(a1-4)Glc(a1-4)Glc(a1-4)Glc(a1-4)Glc(a1-4)Glc(a1-4)Glc
Summary of the method: as §1

[8] = molecular target: Glc(a1-6)Glc
Summary of the method: as §1

[9] = molecular target: Glc(a1-6)Glc(a1-4)Glc(a1-4)Glc
Summary of the method: as §1

[10] = molecular target: Glc(a1-6)Glc(a1-6)Glc
Summary of the method: as §1

[11] = molecular target: Glc(a1-6)Glc(a1-6)Glc(a1-6)Glc
Summary of the method: as §1

[12] = molecular target: Glc(a1-6)Glc(a1-6)Glc(a1-6)Glc(a1-6)Glc
Summary of the method: as §1

[13] = molecular target: Glc(a1-6)Glc(a1-6)Glc(a1-6)Glc(a1-6)Glc(a1-6)Glc
Summary of the method: as §1

[14] = molecular target: Glc(a1-6)Glc(a1-6)Glc(a1-6)Glc(a1-6)Glc(a1-6)Glc(a1-6)Glc
Summary of the method: as §1

[15] = molecular target: Glc(a1-6)Glc(a1-6)Glc(a1-6)Glc(a1-6)Glc(a1-6)Glc(a1-6)Glc(a1-6)Glc
Summary of the method: as §1

[16] = molecular target: Glc(a1-6)Glc(a1-6)Glc(a1-6)Glc(a1-6)Glc(a1-6)Glc(a1-6)Glc(a1-6)Glc(a1-6)Glc
Summary of the method: as §1

[17] = molecular target: Glc(a1-6)Glc(a1-6)Glc(a1-6)Glc(a1-6)Glc(a1-6)Glc(a1-6)Glc(a1-6)Glc(a1-6)Glc(a1-6)Glc
Summary of the method: as §1

[18] = molecular target: Glc(a1-6)Glc(a1-6)Glc(a1-6)Glc(a1-6)Glc(a1-6)Glc(a1-6)Glc(a1-6)Glc(a1-6)Glc(a1-6)Glc(a1-6)Glc
Summary of the method: as §1

[19] = molecular target: Glc(a1-6)Glc(a1-6)Glc(a1-6)Glc(a1-6)Glc(a1-6)Glc(a1-6)Glc(a1-6)Glc(a1-6)Glc(a1-6)Glc(a1-6)Glc(a1-6)Glc
Summary of the method: as §1

[20] = molecular target: Glc(a1-6)Glc(a1-6)Glc(a1-6)Glc(a1-6)Glc(a1-6)Glc(a1-6)Glc(a1-6)Glc(a1-6)Glc(a1-6)Glc(a1-6)Glc(a1-6)Glc(a1-6)Glc
Summary of the method: as §1

[21] = molecular target: Glc(b1-2)Glc
Summary of the method: as §1

[22] = molecular target: Glc(b1-3)Glc
Summary of the method: as §1

[23] = molecular target: Glc(b1-3)Glc(b1-3)Glc
Summary of the method: as §1

[24] = molecular target: Glc(b1-3)Glc(b1-3)Glc(b1-3)Glc
Summary of the method: as §1

[25] = molecular target: Glc(b1-3)Glc(b1-3)Glc(b1-3)Glc(b1-3)Glc
Summary of the method: as §1

[26] = molecular target: Glc(b1-3)Glc(b1-3)Glc(b1-3)Glc(b1-3)Glc(b1-3)Glc
Summary of the method: as §1

[27] = molecular target: Glc(b1-3)Glc(b1-3)Glc(b1-3)Glc(b1-3)Glc(b1-3)Glc(b1-3)Glc
Summary of the method: as §1

[28] = molecular target: Glc(b1-3)Glc(b1-3)Glc(b1-3)Glc(b1-3)Glc(b1-3)Glc(b1-3)Glc(b1-3)Glc
Summary of the method: as §1

[29] = molecular target: Glc(b1-3)Glc(b1-3)Glc(b1-3)Glc(b1-3)Glc(b1-3)Glc(b1-3)Glc(b1-3)Glc(b1-3)Glc
Summary of the method: as §1

[30] = molecular target: Glc(b1-3)Glc(b1-3)Glc(b1-3)Glc(b1-3)Glc(b1-3)Glc(b1-3)Glc(b1-3)Glc(b1-3)Glc(b1-3)Glc
Summary of the method: as §1

[31] = molecular target: Glc(b1-3)Glc(b1-3)Glc(b1-3)Glc(b1-3)Glc(b1-3)Glc(b1-3)Glc(b1-3)Glc(b1-3)Glc(b1-3)Glc(b1-3)Glc
Summary of the method: as §1

[32] = molecular target: Glc(b1-3)Glc(b1-3)Glc(b1-3)Glc(b1-3)Glc(b1-3)Glc(b1-3)Glc(b1-3)Glc(b1-3)Glc(b1-3)Glc(b1-3)Glc(b1-3)Glc
Summary of the method: as §1

[33] = molecular target: Glc(b1-3)Glc(b1-3)Glc(b1-3)Glc(b1-3)Glc(b1-3)Glc(b1-3)Glc(b1-3)Glc(b1-3)Glc(b1-3)Glc(b1-3)Glc(b1-3)Glc(b1-3)Glc
Summary of the method: as §1

[34] = molecular target: Glc(b1-4)Glc
Summary of the method: as §1

[35] = molecular target: Glc(b1-4)Glc(b1-4)Glc
Summary of the method: as §1

[36] = molecular target: Glc(b1-4)Glc(b1-4)Glc(b1-4)Glc
Summary of the method: as §1

[37] = molecular target: Glc(b1-4)Glc(b1-4)Glc(b1-4)Glc(b1-4)Glc
Summary of the method: as §1

[38] = molecular target: Glc(b1-4)Glc(b1-4)Glc(b1-4)Glc(b1-4)Glc(b1-4)Glc
Summary of the method: as §1

B1: HysACBM (Streptococcus pneumoniae), Q54873 (protein)
chain: KNLVENGDFGQTEDGSSPWTGSKAQGWSAWVDQKNSADASTRVIEAKDGAITISSHEKLRAALHRMVPIEAKKKYKLRFKIKTDNKIGIAKVRIIEESGKDKRLWNSATTSGTKDWQTIEADYSPTLDVDKIKLELFYETGTGTVSFKDIELVEVADQLS
glycan array binding signal (z-score) [1]: -0.026 | glycan array binding signal (z-score) [2]: 0.776 | glycan array binding signal (z-score) [3]: -0.091 | glycan array binding signal (z-score) [4]: -0.091 | glycan array binding signal (z-score) [5]: 0.136 | glycan array binding signal (z-score) [6]: -0.091 | glycan array binding signal (z-score) [7]: -0.091 | glycan array binding signal (z-score) [8]: -0.091 | glycan array binding signal (z-score) [9]: -0.059 | glycan array binding signal (z-score) [10]: -0.091 | glycan array binding signal (z-score) [11]: -0.091 | glycan array binding signal (z-score) [12]: -0.091 | glycan array binding signal (z-score) [13]: -0.091 | glycan array binding signal (z-score) [14]: -0.091 | glycan array binding signal (z-score) [15]: -0.091 | glycan array binding signal (z-score) [16]: -0.091 | glycan array binding signal (z-score) [17]: -0.044 | glycan array binding signal (z-score) [18]: -0.091 | glycan array binding signal (z-score) [19]: -0.091 | glycan array binding signal (z-score) [20]: -0.091 | glycan array binding signal (z-score) [21]: -0.091 | glycan array binding signal (z-score) [22]: -0.091 | glycan array binding signal (z-score) [23]: -0.091 | glycan array binding signal (z-score) [24]: -0.091 | glycan array binding signal (z-score) [25]: -0.091 | glycan array binding signal (z-score) [26]: -0.091 | glycan array binding signal (z-score) [27]: -0.091 | glycan array binding signal (z-score) [28]: -0.091 | glycan array binding signal (z-score) [29]: -0.091 | glycan array binding signal (z-score) [30]: -0.091 | glycan array binding signal (z-score) [31]: 0.169 | glycan array binding signal (z-score) [32]: -0.091 | glycan array binding signal (z-score) [33]: -0.091 | glycan array binding signal (z-score) [34]: -0.091 | glycan array binding signal (z-score) [35]: -0.091 | glycan array binding signal (z-score) [36]: -0.091 | glycan array binding signal (z-score) [37]: -0.091 | glycan array binding signal (z-score) [38]: -0.033
